Experimental data: article PMC12820563, “FoxP3 forms a head-to-head dimer in vivo and stabilizes its multimerization on adjacent microsatellites”
Some of the results follow.

Molecular target: T1, MBP-FoxP1dN (Mus musculus, UniProt P58462 326-579)
T1 sequence: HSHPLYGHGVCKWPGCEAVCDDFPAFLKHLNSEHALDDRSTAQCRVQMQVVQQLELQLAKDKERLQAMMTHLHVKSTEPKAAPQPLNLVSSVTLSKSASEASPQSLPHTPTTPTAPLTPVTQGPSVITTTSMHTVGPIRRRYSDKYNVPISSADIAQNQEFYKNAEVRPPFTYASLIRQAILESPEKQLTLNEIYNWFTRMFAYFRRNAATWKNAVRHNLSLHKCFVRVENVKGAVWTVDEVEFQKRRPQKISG
Assay: PD-seq (MBP pull-down with sequencing); 20 mM Tris-HCl pH 7.5, 100 mM NaCl, 1.5 mM MgCl2, 0.4 uM protein, 0.1 uM dsDNA library, 30 min, room temperature, amylose pull-down; high values mean tight binding
Conditions: protein: recombinant; tags: His6-MBP; chain copies: 2; dsDNA, one strand shown
In short: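 Protein and DNA were mixed at 0.4 µM and 0.1 µM and held for 30 min at room temperature in Tris pH 7.5 buffer with NaCl and MgCl2; the protein was a His6-MBP-tagged, N-terminally truncated mouse FoxP3 or FoxP1 fragment from E. coli, and the DNA a Klenow-filled double-stranded degenerate library. Amylose resin captured the complexes, which were washed three times. Binding is read as reads-per-million enrichment of pull-down versus input after Illumina sequencing, with replicates pooled.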

Question: For “GATGATTGTTCTCCCAGCTGATGAATTGAGGTGATCGAGTAAACAAATTTTCCTAATCTTTCTGTTCAAGCGCCATCTAC”, which binding signal is on record?
Answer: 0.915 RPM ratio (pull-down/input)

Question: “GATGATTGTTCTCCCAGCTGATGAATTGATAGACTCGAGTAAACAAATTTTCCTAATCTTTCTGTTCAAGCGCCATCTAC” was tested. Which binding signal did it give?
Answer: 0.964 RPM ratio (pull-down/input)

Question: “GATGATTGTTCTCCCAGCTGATGAATTAGATGGGTCGAGTAAACAAATTTTCCTAATCTTTCTGTTCAAGCGCCATCTAC” was tested. Which binding signal did it give?
Answer: 0.878 RPM ratio (pull-down/input)

Question: Which binding signal does the source give for “GATGATTGTTCTCCCAGCTGATGAATTAGGCCTCTCGAGTAAACAAATTTTCCTAATCTTTCTGTTCAAGCGCCATCTAC” here?
Answer: 0.903 RPM ratio (pull-down/input)

Question: Which binding signal does the source give for “GATGATTGTTCTCCCAGCTGATGAATTTTGGCACTCGAGTAAACAAATTTTCCTAATCTTTCTGTTCAAGCGCCATCTAC” here?
Answer: 0.912 RPM ratio (pull-down/input)

Question: Which binding signal does the source give for “GATGATTGTTCTCCCAGCTGATGAATTATCTCGGTCGAGTAAACAAATTTTCCTAATCTTTCTGTTCAAGCGCCATCTAC” here?
Answer: 0.855 RPM ratio (pull-down/input)

Question: How did the binding signal turn out when “GATGATTGTTCTCCCAGCTGATGAATTAAGTCGCTCGAGTAAACAAATTTTCCTAATCTTTCTGTTCAAGCGCCATCTAC” was run?
Answer: 0.951 RPM ratio (pull-down/input)

Question: “GATGATTGTTCTCCCAGCTGATGAATTACAACTCTCGAGTAAACAAATTTTCCTAATCTTTCTGTTCAAGCGCCATCTAC” was tested. Which binding signal did it give?
Answer: 1.27 RPM ratio (pull-down/input)

Question: “GATGATTGTTCTCCCAGCTGATGAATTGCTTAGATCGAGTAAACAAATTTTCCTAATCTTTCTGTTCAAGCGCCATCTAC” was tested. Which binding signal did it give?
Answer: 1.11 RPM ratio (pull-down/input)

Question: How did the binding signal turn out when “GATGATTGTTCTCCCAGCTGATGAATTGGTCGTATCGAGTAAACAAATTTTCCTAATCTTTCTGTTCAAGCGCCATCTAC” was run?
Answer: 0.934 RPM ratio (pull-down/input)

Question: Which binding signal does the source give for “GATGATTGTTCTCCCAGCTGATGAATTTGAGGCTTCGAGTAAACAAATTTTCCTAATCTTTCTGTTCAAGCGCCATCTAC” here?
Answer: 0.876 RPM ratio (pull-down/input)

Question: “GATGATTGTTCTCCCAGCTGATGAATTGGACAATTCGAGTAAACAAATTTTCCTAATCTTTCTGTTCAAGCGCCATCTAC” was tested. Which binding signal did it give?
Answer: 0.972 RPM ratio (pull-down/input)

Question: With “GATGATTGTTCTCCCAGCTGATGAATTAATGAATTCGAGTAAACAAATTTTCCTAATCTTTCTGTTCAAGCGCCATCTAC” as the sequence, how does the binding signal read?
Answer: 1.01 RPM ratio (pull-down/input)

Question: With “GATGATTGTTCTCCCAGCTGATGAATTTTAACGGTCGAGTAAACAAATTTTCCTAATCTTTCTGTTCAAGCGCCATCTAC” as the sequence, how does the binding signal read?
Answer: 0.842 RPM ratio (pull-down/input)

Question: For “GATGATTGTTCTCCCAGCTGATGAATTACTGAGCTCGAGTAAACAAATTTTCCTAATCTTTCTGTTCAAGCGCCATCTAC”, which binding signal is on record?
Answer: 0.926 RPM ratio (pull-down/input)

Question: How did the binding signal turn out when “GATGATTGTTCTCCCAGCTGATGAATTTTTGACATCGAGTAAACAAATTTTCCTAATCTTTCTGTTCAAGCGCCATCTAC” was run?
Answer: 1.09 RPM ratio (pull-down/input)

Question: How did the binding signal turn out when “GATGATTGTTCTCCCAGCTGATGAATTTTGTTGTTCGAGTAAACAAATTTTCCTAATCTTTCTGTTCAAGCGCCATCTAC” was run?
Answer: 2.84 RPM ratio (pull-down/input)

Question: With “GATGATTGTTCTCCCAGCTGATGAATTAAATGGTTCGAGTAAACAAATTTTCCTAATCTTTCTGTTCAAGCGCCATCTAC” as the sequence, how does the binding signal read?
Answer: 0.962 RPM ratio (pull-down/input)

Question: “GATGATTGTTCTCCCAGCTGATGAATTGGTGCCCTCGAGTAAACAAATTTTCCTAATCTTTCTGTTCAAGCGCCATCTAC” was tested. Which binding signal did it give?
Answer: 0.87 RPM ratio (pull-down/input)

Question: With “GATGATTGTTCTCCCAGCTGATGAATTTAGCGACTCGAGTAAACAAATTTTCCTAATCTTTCTGTTCAAGCGCCATCTAC” as the sequence, how does the binding signal read?
Answer: 0.682 RPM ratio (pull-down/input)

Question: With “GATGATTGTTCTCCCAGCTGATGAATTTAGCAGTTCGAGTAAACAAATTTTCCTAATCTTTCTGTTCAAGCGCCATCTAC” as the sequence, how does the binding signal read?
Answer: 0.973 RPM ratio (pull-down/input)

Question: Which binding signal does the source give for “GATGATTGTTCTCCCAGCTGATGAATTACTCATTTCGAGTAAACAAATTTTCCTAATCTTTCTGTTCAAGCGCCATCTAC” here?
Answer: 1.12 RPM ratio (pull-down/input)

Question: How did the binding signal turn out when “GATGATTGTTCTCCCAGCTGATGAATTCATTGAGTCGAGTAAACAAATTTTCCTAATCTTTCTGTTCAAGCGCCATCTAC” was run?
Answer: 0.913 RPM ratio (pull-down/input)

Question: For “GATGATTGTTCTCCCAGCTGATGAATTTAATTAATCGAGTAAACAAATTTTCCTAATCTTTCTGTTCAAGCGCCATCTAC”, which binding signal is on record?
Answer: 0.987 RPM ratio (pull-down/input)

Question: With “GATGATTGTTCTCCCAGCTGATGAATTTTGGGAATCGAGTAAACAAATTTTCCTAATCTTTCTGTTCAAGCGCCATCTAC” as the sequence, how does the binding signal read?
Answer: 0.94 RPM ratio (pull-down/input)

Question: How did the binding signal turn out when “GATGATTGTTCTCCCAGCTGATGAATTCCGGCCTTCGAGTAAACAAATTTTCCTAATCTTTCTGTTCAAGCGCCATCTAC” was run?
Answer: 0.761 RPM ratio (pull-down/input)

Question: How did the binding signal turn out when “GATGATTGTTCTCCCAGCTGATGAATTGACATGCTCGAGTAAACAAATTTTCCTAATCTTTCTGTTCAAGCGCCATCTAC” was run?
Answer: 1.17 RPM ratio (pull-down/input)

Question: Which binding signal does the source give for “GATGATTGTTCTCCCAGCTGATGAATTTGCCCCATCGAGTAAACAAATTTTCCTAATCTTTCTGTTCAAGCGCCATCTAC” here?
Answer: 0.933 RPM ratio (pull-down/input)

Question: With “GATGATTGTTCTCCCAGCTGATGAATTGATCATCTCGAGTAAACAAATTTTCCTAATCTTTCTGTTCAAGCGCCATCTAC” as the sequence, how does the binding signal read?
Answer: 0.957 RPM ratio (pull-down/input)

Question: “GATGATTGTTCTCCCAGCTGATGAATTGTTTACCTCGAGTAAACAAATTTTCCTAATCTTTCTGTTCAAGCGCCATCTAC” was tested. Which binding signal did it give?
Answer: 2.65 RPM ratio (pull-down/input)

Question: For “GATGATTGTTCTCCCAGCTGATGAATTCCTATCATCGAGTAAACAAATTTTCCTAATCTTTCTGTTCAAGCGCCATCTAC”, which binding signal is on record?
Answer: 0.891 RPM ratio (pull-down/input)

Question: With “GATGATTGTTCTCCCAGCTGATGAATTTCTCCGTTCGAGTAAACAAATTTTCCTAATCTTTCTGTTCAAGCGCCATCTAC” as the sequence, how does the binding signal read?
Answer: 0.952 RPM ratio (pull-down/input)

Question: How did the binding signal turn out when “GATGATTGTTCTCCCAGCTGATGAATTTTGGTATTCGAGTAAACAAATTTTCCTAATCTTTCTGTTCAAGCGCCATCTAC” was run?
Answer: 1.06 RPM ratio (pull-down/input)

Question: With “GATGATTGTTCTCCCAGCTGATGAATTCAATATTTCGAGTAAACAAATTTTCCTAATCTTTCTGTTCAAGCGCCATCTAC” as the sequence, how does the binding signal read?
Answer: 0.919 RPM ratio (pull-down/input)

Question: With “GATGATTGTTCTCCCAGCTGATGAATTTCCGAGCTCGAGTAAACAAATTTTCCTAATCTTTCTGTTCAAGCGCCATCTAC” as the sequence, how does the binding signal read?
Answer: 0.806 RPM ratio (pull-down/input)

Question: How did the binding signal turn out when “GATGATTGTTCTCCCAGCTGATGAATTCCTGTGGTCGAGTAAACAAATTTTCCTAATCTTTCTGTTCAAGCGCCATCTAC” was run?
Answer: 0.912 RPM ratio (pull-down/input)

Question: Which binding signal does the source give for “GATGATTGTTCTCCCAGCTGATGAATTGATTGTGTCGAGTAAACAAATTTTCCTAATCTTTCTGTTCAAGCGCCATCTAC” here?
Answer: 1.35 RPM ratio (pull-down/input)

Question: “GATGATTGTTCTCCCAGCTGATGAATTGAACTAATCGAGTAAACAAATTTTCCTAATCTTTCTGTTCAAGCGCCATCTAC” was tested. Which binding signal did it give?
Answer: 0.992 RPM ratio (pull-down/input)

Question: “GATGATTGTTCTCCCAGCTGATGAATTGAGAAAATCGAGTAAACAAATTTTCCTAATCTTTCTGTTCAAGCGCCATCTAC” was tested. Which binding signal did it give?
Answer: 0.951 RPM ratio (pull-down/input)

Question: “GATGATTGTTCTCCCAGCTGATGAATTAGTTATCTCGAGTAAACAAATTTTCCTAATCTTTCTGTTCAAGCGCCATCTAC” was tested. Which binding signal did it give?
Answer: 0.936 RPM ratio (pull-down/input)
